Reference: PubChem BioAssay AID504842 (National Center for Advancing Translational Sciences (NCATS), 2011)
The whole screen tested about 330,000 compounds, of which about 100 (0.03%) were called active. Not shown: some 1% with an inconclusive outcome. The call rests on the fitted dose curve; in most records, active means well fitted inhibition curve with a large enough effect; inconclusive means small, poorly fitted or top-dose-only effect; inactive means flat fitted curve, though single readings scatter. Only a part is listed here, and it is no random draw.

The compounds below were run on Chaperonin Mm-Cpn (Methanococcus maripaludis) (assay: Inhibitors of TCP-1 ring complex (TRiC) of Methanococcus maripaludis (MmCpn): qHTS). Details: purified Mm-Cpn ATPase, ADP Transcreener TR-FRET; series mostly up to 76.9 µM; activity, negative = inhibition: at the top concentration.
Text: The eukaryotic chaperonin TRiC (for TCP-1 ring complex) is an essential and conserved chaperone required for the folding and activation of 10-15% of the proteins encoded by the human genome. […] The TRiC complex consist of two stacked 7-9 membered rings, each containing a central cavity. Substrates are folded within the cavity in an ATP-dependent manner. TRiC is a complex of eight different, essential proteins. As each of the genes encoding the eight subunits is essential for cell viability and no protocol has been developed to over-express this enzyme to high levels. That is why several groups studying the TRiC chaperonin have turned to the archaeal homolog of TRiC, Methanococcus maripaludis (Mm-CPN), and have used this enzyme as a model system for the study of the type II chaperonin family. Small molecule inhibitors of the Mm-CPN enzyme would be extremely useful to study the mechanism of chaperonin activity. Importantly, TRiC and Mm-CPN both require ATP hydrolysis for function. Furthermore, the ATP binding sites are highly conserved among these type II chaperonins. This provides us with an easy, well tested and straightforward assay to identify inhibitors of chaperonin activity. The Mm-CPN assay was developed in 1536-well plate format using the HTRF Transcreener ADP assay kit (Cisbio, Bedford, MA). This assay applied the time resolved fluorescence resonance energy transfer (TR-FRET) principle. ATP in the presence of Mm-CPN is converted to ADP + Pi. An antibody labeled with Eu3+-Cryptate specific and bound to ADP labeled with […] (d2) competes with the unlabeled ADP generated by Mm-CPN. The resulting TR-FRET signal is inversely proportional to the concentration of ADP in the sample. In this assay a reduction in TR-FRET signal is observed with ATP turnover. NIH Chemical Genomics Center [NCGC] NIH Molecular Libraries Probe Centers Network [MLPCN] MLPCN Grant: DA030554-01A1 Assay Submitter (PI): Judith Frydman, Stanford University
Purified Mm-CPN was supplied by the laboratory of Dr. Judith Frydman. Protein samples were stored at -80C as single use aliquots. Protein was thawed in ambient temperature water bath and placed on ice once thawed. Buffer was prepared fresh day of screen. The buffer composition below was used to prepare the working solution of the Mm-CPN protein and ATP substrate. The buffer is comprised of 30 mM TRIS pH 7.4, 100mM KCl, 5mM MgCl2, and 1mM DTT. A final concentration of 25nM Mm-CPN and 10uM ATP per well were used in the screen. Instructions according to the manufacturer were followed for the ADP Transcreener kit. Used 1536 well Greiner white, medium binding (MB), solid bottom plates. Plates were read on the PerkinElmer EnVision plate reader using Excitation = 320 nm and Emission = […], 665 nm. Protocol- 1.Dispense 1.5ul per well of working [Mm-CPN] = 50nM (or 75 ng / well) 2.Spin plate at 1000 rpm for 30 seconds 3.23nl of compound transferred per well 4.Incubate at 37degC for 10 minutes 5.Dispense 1.5ul per well of working [ATP] = 20uM 6.Incubate at 37degC for 30 minutes 7.Dispense 3ul per well of Anti-ADP Cryptate / ADP-d2 mix (prepared as instructed by Cisbio) 8.Incubate at ambient for 30 minutes 9.Read using EnVision
Further: nearly all actives have a fitted effect of over 80% in size.
On the % scale 0 is the no-effect control and ±100 the full control effect; potency means the concentration at half of the fitted maximal effect.
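Wherever Potency is given: enzyme at 25 nM with ATP substrate at 10 µM during the reaction.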

Structure (SMILES)	activity, negative = inhibition	Potency
COC(=O)C1=C(O)/C(=C\c2ccc(OCC(=O)Nc3ccccc3)cc2)N=C1C	inactive: 0.849%	–
[2H]c1c([2H])c([2H])c(-c2nc(N3CCCCCC3)sc2C(=O)c2ccccc2)c([2H])c1[2H]	inactive: -8.91%	–
CCN1C(=O)[C@H]2[C@@H](c3ccc(-c4ccc(F)cc4)cc3)N3CCCC[C@@]3(C(=O)OC)[C@H]2C1=O	inactive: -2.81%	–
N#C/C(=C/c1ccc(N2CCCC2)c([N+](=O)[O-])c1)c1nc2ccccc2[nH]1	inactive: 1.56%	–
O=C(NCC#CCSc1nnc(-c2cccc3ccccc23)o1)c1cccs1	inactive: -2.99%	–
CCN(CC)CCOc1ccc(/C(=C(/Cl)c2ccccc2)c2ccccc2)cc1	inactive: 0.668%	–
COC(=O)[C@@H]1C[C@H]1[C@@H](NC(=O)c1ccccc1)c1ccccc1	inactive: -12.1%	–
COC(C[C@H](O)CC(=O)[C@H](C)OCc1ccccc1)OC	inactive: 0.411%	–
Cc1cc2ccccc2n1CCNC(=O)c1ccc(S(=O)(=O)N2CCCCC2)cc1	–	active: 14.1 µM
CCN1C(=NCC2CC2)N[C@@H](c2cccc(C(F)(F)F)c2)C(C(=O)OC)=C1C	inactive: -7%	–
CC(=NCCCn1ccnc1)c1c(C)[nH]n(-c2ccc([N+](=O)[O-])cc2)c1=O	–	active: 39.8 µM
COc1ccc([C@@H](OC)[C@@]2(Cc3ccc(O)cc3)N=C(N)N(C)C2=O)cc1	inactive: 0.515%	–
C=CC[C@H](CC(=O)N(CCO)Cc1ccccc1)C(=O)NC[C@@H](OC(=O)[C@@H](CC=C)Cc1ccc(F)cc1)c1ccccc1	inactive: 0.412%	–
Cc1cccc(N=C2NC(=O)/C(=C/c3cccs3)S2)c1	inactive: -10.8%	–
CCSc1nc2ccccc2n1C(=O)/C=C\c1ccc(OC)c(OC)c1	inactive: -17.5%	–
C=CCC[C@@H](Cc1ccc(F)cc1)C(=O)OC[C@@H]1CCCN1C(=O)[C@@H](CC=C)CC(=O)N[C@@H](CO)Cc1ccccc1	inactive: -0.133%	–
O=C(c1ccccc1)c1sc(N2CCCCCC2)nc1-c1ccccc1	inactive: -8.6%	–
COc1ccccc1-c1sc2cc3c(cc2c1C#Cc1ccccn1)OCO3	–	active: 31.6 µM
C[C@H](CO)N1C[C@H](C)[C@@H](CN(C)C(=O)Nc2ccc(C(F)(F)F)cc2)Oc2c(cccc2N(C)C)C1=O	–	active: 3.98 µM
O=C1CCC/C=C/C[C@@H](CC(=O)N(CCO)Cc2ccccc2)C(=O)NC[C@H](c2ccccc2)O1	inactive: 0.928%	–
COC(C[C@@H](O)CC(=O)[C@H](C)OCc1ccccc1)OC	inactive: 2.15%	–
Oc1ccc(-c2sc(Nc3ccccc3)n[n+]2-c2ccc(F)cc2)cc1	–	active: 39.8 µM
CC(=O)N1c2ccccc2[C@@H](C)[C@@H]1C	inactive: 1.02%	–
CCOC(=O)C1=C(c2ccccc2)O/C(=C(\C(=O)OC)C(F)(F)F)S1	inactive: -6.74%	–
CC(C)(C)OC(=O)C[C@@H]1C/C=C\C[C@H](CC(=O)N[C@H](CO)Cc2ccccc2)C(=O)N[C@H](Cc2ccccc2)COC1=O	inactive: -9.31%	–
Cc1ccccc1C(=O)NCC(c1ccco1)N1CCc2ccccc2C1 (stereo unspecified)	–	active: 39.8 µM

Structure (SMILES)	activity, negative = inhibition	Potency
O=C1O/C(=C/c2ccccc2)c2ccccc21	inactive: 3.79%	–
CCOC(=O)C1CCCC(NS(=O)(=O)c2ccc(NC(C)=O)cc2)C1 (stereo unspecified)	inactive: 0.943%	–
N#CN=C(N)c1ccccc1	inactive: -4.12%	–
O=c1[nH]c(/C=C\c2cccnc2)c([N+](=O)[O-])c(=O)[nH]1	inactive: -19.9%	–
Cc1cc(C)c(S(=O)(=O)NCCn2c(C)cc3ccccc32)c(C)c1	–	active: 35.5 µM
Cc1c2cc(O)c(=O)cc-2oc2cc(O)c(O)cc12	inactive: -7.79%	–
Cc1cc(C[n+]2ccsc2N)c2ncccc2c1	–	active: 39.8 µM
Cc1cccc(C(=O)O[C@@H]2[C@H](Cc3ccccc3)NS(=O)(=O)[C@H]3C[C@@H]4C=C[C@]23O4)c1	inactive: -0.387%	–
CCCc1nn2c(N)c(/C=C3\C=Nc4ccccc43)c(=O)nc2s1	inactive: 2.25%	–
COc1cc(NC(=O)[C@@H]2CCCN2S(=O)(=O)c2cccc3cccnc23)cc(OC)c1OC	inactive: -13.3%	–
CCN1C(=S)N[C@@H](c2cccs2)C(C(=O)OC)=C1C	inactive: -1.67%	–
C=CC[C@@H](CC(=O)N(CCO)Cc1ccccc1)C(=O)NC[C@H](OC(=O)[C@@H](CC=C)Cc1ccc(F)cc1)c1ccccc1	inactive: 1.85%	–
CCc1ccc(C2C(C#N)=C(N)SC(N)=C2C#N)s1	–	active: 35.5 µM
C/C(=C/C(=O)N1CCc2ccccc21)C(=O)O	inactive: -1.07%	–
NC(=NCCCCCCN=C(N)/N=C(\N)Nc1ccc(Cl)cc1)/N=C(\N)Nc1ccc(Cl)cc1	–	inactive
Cc1cc2nc3ccc(=[N+](C)C)cc-3sc2cc1N	–	active: 31.6 µM
CCOC(=O)/C(C#N)=C/c1ccc(N2CCN(C)CC2)cc1	inactive: 0.589%	–
CC(C)(C)OC(=O)C[C@H]1C/C=C\C[C@H](CC(=O)N[C@H](CO)Cc2ccccc2)C(=O)N[C@@H](Cc2ccccc2)COC1=O	inactive: -0.0344%	–
COc1ccccc1-c1sc2ccccc2c1-c1ccc2c(c1)OCCO2	–	active: 20 µM
CC1(C)S[C@@H]2[C@H](NC(=O)[C@H](N)c3ccccc3)C(=O)N2[C@H]1C(=O)O	inactive: 1.47%	–
C=CCC[C@@H](Cc1ccc(F)cc1)C(=O)OC[C@@H]1CCCN1C(=O)[C@H](CC=C)CC(=O)N[C@H](CO)Cc1ccccc1	inactive: -1.71%	–
NS(=O)(=O)c1ccc(NC(=S)NC(=O)c2ccco2)cc1	inactive: 1.28%	–
C[C@@H](NC(=O)[C@@H]1Cc2ccccc2CN1)C(=O)Nc1ccc2c(c1)OCCO2	inactive: 3.33%	–
Cn1ncc2c(NCc3ccccc3)ncnc21	inactive: -0.151%	–
C#CCn1c(=NC(=O)c2cc(Cl)sc2Cl)sc2cc(S(N)(=O)=O)ccc21	–	active: 50.1 µM
C=CC[C@@H](CC(=O)N(CCO)Cc1ccccc1)C(=O)NCCOC(=O)[C@H](CC=C)CC(=O)OC(C)(C)C	inactive: -0.126%	–

Structure (SMILES)	activity, negative = inhibition	Potency
CCOC(=O)/C(C#N)=C/C1=C(N2CCCC2)CC(C)(CC)OC1 (stereo unspecified)	inactive: -5.7%	–
CC(C)(C)OC(=O)C[C@@H]1C/C=C\C[C@H](CC(=O)N[C@@H](CO)Cc2ccccc2)C(=O)N[C@H](Cc2ccccc2)COC1=O	inactive: 0.271%	–
COc1ccc(-c2csc(NC(=O)c3ccc(S(=O)(=O)N4CCc5ccccc5C4)cc3)n2)c(OC)c1	–	active: 50.1 µM
CC1(C)CC(=O)C/C(=N\NC(=O)C2CC23CCC3)C1 (stereo unspecified)	–	active: 50.1 µM
COc1cc(/C=C2\SC(=S)N(CCC(=O)Nc3ccccc3)C2=O)cc(OC)c1OC	inactive: -7.59%	–
Cc1csc(CNc2ncnc3ccc(-c4cccc(Cl)c4)cc23)c1	inactive: -2.45%	–
CCN1C(=O)[C@H]2[C@@H](c3ccc(-c4ccc(Cl)c(Cl)c4)c(OC)c3)N3CCCC[C@@]3(C(=O)OC)[C@H]2C1=O	inactive: -5.15%	–
Cn1c(=O)c2c(nc(Oc3ccccc3)n2C)n(C)c1=O	inactive: 0.256%	–
COc1cc(NC(=O)[C@H]2CCCN2S(=O)(=O)c2cccc3cccnc23)cc(OC)c1OC	inactive: 0.549%	–
CCN(CC)CCOc1ccc(/C(=C(\Cl)c2ccccc2)c2ccccc2)cc1	inactive: 1.07%	–
CCCCSc1cnn(-c2ccccc2)c(=O)c1SCCCC	–	active: 39.8 µM
C=CC[C@H](CC(=O)N(CCO)Cc1ccccc1)C(=O)NCCOC(=O)[C@@H](CC=C)CC(=O)OC(C)(C)C	inactive: -0.771%	–
CCN1C(=NCCOC)N[C@@H](c2cccc(C(F)(F)F)c2)C(C(=O)OC)=C1C	inactive: 0.361%	–
O=C(OCC#CCSc1nnc(-c2cccc3ccccc23)o1)c1cccc2[nH]ccc12	inactive: -2.66%	–
CN(C)c1ccc(N/C=C/C(=O)C(F)(F)F)cc1	–	active: 25.1 µM
CCc1ccccc1N1C[C@@]23C=C[C@@H](O2)C(C(=O)OCC(C)C)[C@H]3C1=O (stereo partly specified)	inactive: -5.93%	–
C=CC[C@H](CC(=O)N(CCO)Cc1ccccc1)C(=O)NC[C@H](OC(=O)[C@@H](CC=C)Cc1ccc(F)cc1)c1ccccc1	inactive: -2.93%	–
NC(=O)C1CCN(c2nc(-c3ccccc3Br)cs2)CC1	inactive: 3.78%	–
O=C(CN1CCN(Cc2ccccc2)CC1)N/N=C\C=C/c1ccco1	inactive: -1.46%	–
CN1CCN(C(=O)CCN2C(=O)/C(=C\c3ccc(F)cc3)SC2=S)CC1	inactive: 2.04%	–
CC(C)(C)OC(=O)C[C@H]1C/C=C\C[C@H](CC(=O)N[C@H](CO)Cc2ccccc2)C(=O)N[C@H](Cc2ccccc2)COC1=O	inactive: -0.398%	–
CCN1/C(=C/c2ccc3cc(C)ccc3[n+]2CC)Sc2cc(C)c(C)cc21	inactive: -3.53%	–
C[C@]12CCC[C@H](O1)[C@H]([C@@H](O)c1ccccc1)O2	inactive: 3.41%	–
CCN1C(=S)N[C@@H](c2ccccc2)C(C(=O)OC)=C1C	inactive: 0.379%	–
